The results in this text go back to ChEMBL document CHEMBL4888484, “Replenishing the malaria drug discovery pipeline: Screening and hit evaluation of the MMV Hit Generation Library 1 (HGL1) against asexual blood stage Plasmodium falciparum ,using a nano luciferase reporter read-out” (2022).

Molecules are shown by their SMILES. The campaign covered roughly 150,000 compounds. About 540 (0.36%) showed an effect of 50% or more. This is one part of the list.

This assay relates to Plasmodium falciparum. The experiment in a line: Primary screen in NF54 nanoGlo assay, in single point, at 2uM, 72h; a lower Z score goes with more inhibition. The class given is functional, Erythrocyte. Particulars: timepoint 72 hour.
On to `CCCc1nc(C)sc1C(=O)Nc1ccc(OC)nc1`, for which the % Inhibition (as a rule, the relative decrease from the control value, in per cent) is given as 2% and the Z score is on record as -0.3.

On to `N#Cc1ncn(C[C@H]2CCC3(CCCCC3)O2)c1C#N`, for which the “% Inhibition” value is on record as -10% and the Z score is given as 1.82.

Consider `Cc1noc(C)c1S(=O)(=O)N1CCCCCCC1`, for which the “% Inhibition” value is recorded as -5% and the Z score is given as 0.7.

On to `O=C(Nc1nnc(C2CC2)s1)c1ccc(S(=O)(=O)N2CCCC2)cc1`, for which the “% Inhibition” value was -4% and the Z score is given as 0.48.

Turning to `Cc1cc(C)nc(C2CN(C(=O)c3cc(Cl)cc(F)c3N)C2)n1`, the “% Inhibition” value is listed as -14% and the Z score was 2.19.

`Cc1cc(C2CCN(c3cc(C#N)c(Br)cn3)CC2)[nH]n1`: the “% Inhibition” value is reported as 14% and the Z score was -1.61.

On to `O=C(O)C1CCCN1C1CCN(Cc2ccccc2)C1` (configuration not stated), for which the “% Inhibition” value is given as -17% and the Z score was 3.32.

Consider `COc1ccc2c(c1)CN(C(=O)[C@]1(O)CCOC1)CC2`, for which the “% Inhibition” value is -12% and the Z score is given as 1.34.

In the case of `Nc1c(-c2ccncc2)nsc1C(=O)NCc1ccccc1F`, the “% Inhibition” value is -14% and the Z score came to 1.38.

Take `CCCS(=O)(=O)CCN1CCCC[C@H]1c1ncc[nH]1`: the “% Inhibition” value stood at 1% and the Z score is recorded as -0.12.

As for `CN(C)[C@@H]1CO[C@H](CNC(=O)c2ccc(F)cc2)[C@H]1O`, the “% Inhibition” value was 11% and the Z score was -1.28.

Consider `O=C(N/C(=N/c1ccccc1)N1CCN(Cc2cccc(F)c2)CC1)c1ccc(Br)cc1`, for which the “% Inhibition” value is reported as -1% and the Z score was determined as 0.26.

`O=C(c1ccc2cc[nH]c2c1)N1CCC2(CC1)C[C@@H](Cc1ccc(F)cc1)CCO2`: the “% Inhibition” value worked out at 9% and the Z score is -0.97.

In the case of `O=C(CCn1cccn1)Nc1cnc(-c2ccccc2)s1`, the “% Inhibition” value was -7% and the Z score was 1.22.

As for `COc1ccc(CC(=O)NCC2(C)CCOCC2)cc1`, the “% Inhibition” value is given as -6% and the Z score worked out at 0.97.

As to `CCN(CC)c1cc(N2Cc3cnc(-c4ccccc4)nc3C2)nc(N)n1`, the “% Inhibition” value is given as -2% and the Z score came out at 0.29.

Turning to `COC(=O)c1ccc2nn(CCc3c(C)noc3C)c(=O)n2c1`, the “% Inhibition” value is listed as -11% and the Z score was 1.07.

Take `Cc1cc(N2CCC[C@@]3(CCC(=O)N(CCCO)C3)C2)nc(N(C)C)n1`: the “% Inhibition” value is on record as -12% and the Z score was determined as 1.63.

As for `O=C(c1cccc(S(=O)(=O)N2CCCC2)c1)N(c1ccc(Cl)cc1)c1nc2ccccc2s1`, the “% Inhibition” value is -7% and the Z score worked out at 1.03.

As to `CN(Cc1ccccc1)S(=O)(=O)N1C[C@@H]2NCCO[C@H]2C1`, the “% Inhibition” value is given as -8% and the Z score is listed as 0.98.

In the case of `COc1ccc(CN2CCN(c3ccncc3C)CC2)cc1Cn1cccn1`, the “% Inhibition” value is -15% and the Z score is listed as 1.41.

For the compound `COc1ccc(C=C(c2nnnn2-c2ccc(C)cc2)c2nnnn2-c2ccc(C)cc2)cc1OC`, the “% Inhibition” value is reported as -9% and the Z score came to 1.8.

Turning to `O=C(CC1CCCCC1)Nc1nc(C2CC2)cs1`, the “% Inhibition” value was -7% and the Z score is listed as 1.

Regarding `COc1ccc2nc(CN3CCC[C@H](OC)C3)sc2c1`, the “% Inhibition” value came out at 17% and the Z score is reported as -2.46.

Regarding `CCN(CC)C(=O)Cn1cccc1-c1nc(-c2ccc(OC)c(OC)c2)no1`, the “% Inhibition” value was found to be 7% and the Z score is listed as -1.05.

Turning to `COCCN1CC[C@@]2(CCC1=O)CN(C(=O)c1ccc(C)s1)CCN2C`, the “% Inhibition” value is listed as -3% and the Z score was 0.39.

`Cn1ncc(CNC[C@H](O)c2ccc(Br)cc2)n1`: the “% Inhibition” value is recorded as -6% and the Z score was determined as 1.26.

Regarding `CC(=O)NCCCNC(=O)Cc1ccc(Cl)cc1Br`, the “% Inhibition” value turned out to be 2% and the Z score was -0.22.

As for `O=C([C@@H]1CCCO1)N1CCN(c2nccs2)CC1`, the “% Inhibition” value is on record as -6% and the Z score was 1.01.

As to `OCc1ccc(-c2c(-c3ccccc3)ncn2CCc2cn[nH]c2)o1`, the “% Inhibition” value was -6% and the Z score was determined as 0.97.

Consider `O=C(c1ccc2c(c1)CCCN2)N1CCC[C@@H]2OCC[C@@H]21`, for which the “% Inhibition” value is on record as -3% and the Z score is recorded as 0.53.

With `CC[C@H](CO)NC(=O)Nc1snnc1-c1ccccc1`, the “% Inhibition” value was -14% and the Z score is 1.53.

Regarding `O=c1[nH]nc(-c2nc(-c3cnccn3)no2)c2ccccc12`, the “% Inhibition” value is -9% and the Z score was 1.44.

Consider `O=C(NCc1ccc(F)cc1)c1cnn2c1OCCC2`, for which the “% Inhibition” value is recorded as -11% and the Z score is 1.36.

`COCc1nc(-c2ccncc2)nn1CC(F)(F)F`: the “% Inhibition” value was determined as 1% and the Z score is recorded as -0.23.

On to `Cn1c(Cn2cccn2)nnc1[C@H]1CCCN(c2nc(CO)cs2)C1`, for which the “% Inhibition” value is reported as 1% and the Z score is -0.08.

Take `CC1(C(=O)N2CC3(CC3)C2)CCCCCC1`: the “% Inhibition” value was -4% and the Z score was found to be 0.63.

Regarding `CC[C@H](OC)c1nc(C2(N)CCC2)no1`, the “% Inhibition” value amounted to 2% and the Z score is reported as -0.28.

Turning to `Cc1nc(CN(C)C(=O)Nc2cc(-c3ncco3)ccc2C)no1`, the “% Inhibition” value is reported as -3% and the Z score is 0.37.

Consider `c1cc2c(cc1CN1CCCCCC1)OCO2`, for which the “% Inhibition” value is 1% and the Z score was -0.13.

Take `O=C(Nc1ccc(-c2onc3c2CCCC3)cc1)c1c(Cl)cc(Cl)cc1Cl`: the “% Inhibition” value was -2% and the Z score is on record as 0.3.

For `O=C1N(c2ccc(F)cc2)Cc2nc(=O)n(C3CCCC3)n21`, the “% Inhibition” value worked out at 35% and the Z score is on record as -3.95.

`C[C@H]1CN(CCc2ccc(S(N)(=O)=O)cc2)CC(C)(C)O1`: the “% Inhibition” value is given as -5% and the Z score is on record as 0.71.

In the case of `COc1ccc(-c2cc(C(=O)NCCc3ccccn3)[nH]n2)cc1OC`, the “% Inhibition” value was -5% and the Z score came out at 0.68.

For the compound `Cc1ccc(CC2CCN(C(=O)c3ccc4c(c3)NC(=O)CNC4=O)CC2)cc1C`, the “% Inhibition” value is -4% and the Z score was 0.46.

As for `Cc1nn(C)cc1CNC(=O)c1ccc2c(c1)OCO2`, the “% Inhibition” value is given as 0% and the Z score was -0.07.

In the case of `COc1ccc2nc(C)c(C(=O)N3CC(C(F)(F)F)C3)n2n1`, the “% Inhibition” value is recorded as -9% and the Z score was 1.32.

Regarding `C[C@@H](C(=O)NCCn1cnc2c(N)ncnc21)c1ccccc1`, the “% Inhibition” value is listed as 20% and the Z score was -2.53.

Take `Oc1cccc(C2Nc3ccc(Br)cc3[C@H]3OCC[C@@H]23)c1` (some centres not stated): the “% Inhibition” value was -1% and the Z score worked out at 0.14.

As for `CN1CCC2(CCN(C(=O)NCc3cc(C4CC4)ccc3F)CC2)C1=O`, the “% Inhibition” value was -6% and the Z score came out at 0.82.

`CN(Cc1ccc2c(c1)OCCO2)c1nc(N)nc(C(C)(C)C)n1`: the “% Inhibition” value is 6% and the Z score is listed as -1.11.

Consider `O=C([C@H]1CC12CCC2)N1CCC(Oc2ccccc2)(C(=O)O)CC1`, for which the “% Inhibition” value is -4% and the Z score stood at 0.66.

In the case of `CC[C@H](NCc1nncn1C)c1ccc2c(c1)CC(C)(C)O2`, the “% Inhibition” value is given as -13% and the Z score is on record as 1.71.

Turning to `O=C(NC1CCCC1)c1sccc1S(=O)(=O)N1CCOCC1`, the “% Inhibition” value was -45% and the Z score turned out to be 5.29.

Regarding `Cn1cnnc1[C@@H]1CCCN1Cc1cc(Cl)cc(C(F)(F)F)c1`, the “% Inhibition” value is -1% and the Z score worked out at 0.17.

With `COc1cc2c(-c3ccccc3)c(C)oc2cc1CN1CCc2ccccc2C1`, the “% Inhibition” value is listed as -3% and the Z score was found to be 0.58.
